# Experimental data as given in article PMC4336329 (PLoS ONE, 2015).
# Out of some 310,000 compounds screened, about 14,000 (4.5%) showed an effect of 50% or more. Effects have a minus sign here. This is one part of the list.
# Target: human ether-à-go-go-related gene (hERG) potassium channel (human, UniProt Q12809)
# Test: primary screen, population patch clamp on CHO cells stably expressing hERG
# 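Note: peak tail current of the secondary pulse compared with the same well before compound.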
# Sequence of human ether-à-go-go-related gene (hERG) potassium channel (Q12809 whole entry, looked up): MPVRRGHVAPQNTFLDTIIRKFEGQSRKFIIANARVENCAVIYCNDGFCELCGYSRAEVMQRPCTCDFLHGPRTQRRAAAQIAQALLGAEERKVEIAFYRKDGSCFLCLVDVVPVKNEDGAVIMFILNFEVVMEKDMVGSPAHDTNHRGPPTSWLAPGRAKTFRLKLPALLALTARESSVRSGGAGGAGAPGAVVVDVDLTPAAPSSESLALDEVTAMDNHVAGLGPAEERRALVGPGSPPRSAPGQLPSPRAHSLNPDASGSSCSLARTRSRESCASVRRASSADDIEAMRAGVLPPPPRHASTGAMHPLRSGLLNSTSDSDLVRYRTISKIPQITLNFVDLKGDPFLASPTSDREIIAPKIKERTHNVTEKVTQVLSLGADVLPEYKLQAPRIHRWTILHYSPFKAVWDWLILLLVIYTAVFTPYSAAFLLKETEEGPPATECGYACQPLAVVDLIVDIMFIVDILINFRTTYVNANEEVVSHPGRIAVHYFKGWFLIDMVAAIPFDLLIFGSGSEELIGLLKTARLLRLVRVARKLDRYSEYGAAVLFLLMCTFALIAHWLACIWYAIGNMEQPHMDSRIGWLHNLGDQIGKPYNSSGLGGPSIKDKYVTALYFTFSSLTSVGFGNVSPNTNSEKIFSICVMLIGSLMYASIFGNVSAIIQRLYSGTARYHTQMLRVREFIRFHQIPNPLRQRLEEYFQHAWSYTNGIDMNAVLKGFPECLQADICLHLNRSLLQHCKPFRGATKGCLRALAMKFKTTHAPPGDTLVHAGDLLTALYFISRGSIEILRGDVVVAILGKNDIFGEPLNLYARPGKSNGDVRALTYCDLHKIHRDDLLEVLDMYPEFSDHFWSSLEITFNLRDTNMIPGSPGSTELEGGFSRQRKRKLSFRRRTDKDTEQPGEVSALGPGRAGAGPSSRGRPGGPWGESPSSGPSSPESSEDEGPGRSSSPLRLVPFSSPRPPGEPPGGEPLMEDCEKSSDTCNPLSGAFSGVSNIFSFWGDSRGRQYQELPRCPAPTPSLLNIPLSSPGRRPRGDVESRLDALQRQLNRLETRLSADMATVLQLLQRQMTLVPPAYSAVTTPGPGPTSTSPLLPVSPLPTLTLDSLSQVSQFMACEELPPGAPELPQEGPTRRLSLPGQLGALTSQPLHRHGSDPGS
row,SMILES,"hERG current change (%, negative = inhibition) at 10uM [%]"
1,O=C(Nc1cccnc1Cl)c1cc(-c2ccccc2O)on1,-5.16
2,CCCc1ccc(-c2csc(NC(=O)C3=COCCO3)n2)cc1,3.51
3,CCOC(=O)C1(Cc2ccccc2Cl)CCN(C(=O)c2cnccn2)CC1,-20.2
4,C#CCNC(=O)C1=C[C@H](c2cn(C(C)=O)c3ccccc23)C[C@H](OCc2ccc(CO)cc2)O1,-38.4
5,Cc1c(C(=O)OCC(=O)N(C)c2ccccc2)oc2ccccc12,3.17
6,CCN(C(=O)COC(=O)c1cc(S(=O)(=O)N2CCc3ccccc32)ccc1OC)C1CCS(=O)(=O)C1 (stereo not shown),-16.3
7,O=C(CCCOc1ccc(Cl)cc1Cl)NCC1CCCO1 (stereo not shown),-9.76
8,C(=C\c1ccccc1)/CSc1nc2ncccc2[nH]1,12.2
9,O=C(Nc1cccc(C(=O)O)c1)/C(=C\c1ccc2c(c1)OCO2)NC(=O)c1ccc(Br)o1,5.52
10,COc1ccc(-c2cc(C(F)(F)F)nc(SCC(=O)Nc3sc4c(c3C#N)CCC4)n2)cc1,13.6
11,Cc1cc(C(=O)Nc2ccccc2)oc1C,7.57
12,COCCNC(=O)C(=O)N/N=C(\C)CC(=O)Nc1cccnc1,8.89
13,CC/C(=N\N=C(/CC)c1ccccc1N)c1ccccc1N,8.02
14,O=C(CSc1nc2ccccc2c(=O)[nH]1)Nc1ccccc1C(F)(F)F,-2.68
15,CN(C(=O)COC(=O)CNC(=O)c1sc2ccccc2c1Cl)c1ccccc1,0.791
16,CC1CCN(S(=O)(=O)N2CCC(C(=O)N3CCC(N(C)CC4CCCO4)CC3)CC2)CC1 (stereo not shown),-22.1
17,O=C1CCCN1c1ccc(S(=O)(=O)Nc2cccnc2)cc1,-3.53
18,CCOc1ccc(CCNC(=O)COC(=O)/C=C/c2cccc(OC)c2)cc1OCC,-1.47
19,CCOC(=O)C[C@H]1c2ccccc2S(=O)(=O)N1Cc1cccc(C(F)(F)F)c1,-24.8
20,CCOc1ccc(NC(=O)c2c(NC(=O)CNCCN3CCOCC3)sc3c2CCC3)cc1,-69.3
21,CCc1nc(SCC(=O)Nc2ccc(F)cc2F)c2c(=O)n(C)c(=O)n(C)c2n1,10.2
22,CCOC(=O)CN(C(=O)c1snc(C(N)=O)c1N)C(C(=O)NC1CCCCC1)c1ccc(F)cc1 (stereo not shown),-2.27
23,Cc1cc(C)cc(NC(=O)c2nnn(Cc3cc(C)ccc3C)c2N)c1,-5.28
24,Brc1ccc(Oc2nnnn2-c2ccccc2)cc1,-26.7
25,COC(=O)c1noc(-c2ccc(OC)cc2)n1,-2.85
26,Cn1c(SCc2nc3ccccc3[nH]2)nnc1-c1ccccn1,-8.29
27,CCC(C)[C@H](NC(=O)NCC1CCCO1)C(=O)OC (stereo partly shown),19.1
28,Cc1[nH]c2ccc(OC(F)(F)F)cc2c1CCNCc1ccc(Cl)cc1.O=C(O)C(=O)O,-34.5

row,SMILES,"hERG current change (%, negative = inhibition) at 10uM [%]"
1,O=C(OCC(=O)N1CCN(C(=O)COC(=O)c2ccc(O)cc2O)CC1)c1ccc(O)cc1O,18
2,O=C(O)C1C2C=CC(C2)C1C(=O)NCc1ccco1 (stereo not shown),17.2
3,O=C(CP(=O)(c1ccccc1)c1ccccc1)N1CCOCC1,11
4,O=C(CNC(=O)Cc1ccccc1)NCC(=O)OCC(=O)c1ccccc1Cl,-3.44
5,O=C(COC(=O)CSc1nnc(-c2ccc(Cl)cc2)o1)Nc1cc(Cl)ccc1Cl,-11.4
6,OCCC1CN(Cc2ccn[nH]2)CCN1Cc1ccc(F)c(F)c1 (stereo not shown),9.54
7,COCCCNC(=S)N(Cc1ccccc1)Cc1nc2ccccc2c(=O)[nH]1,-10.1
8,CCc1ccccc1NC(=O)CSc1nnc([C@H](CCSC)NC(=O)OC(C)(C)C)o1,-7.44
9,Cc1ccc(NC(=S)Nc2ccc3cn[nH]c3c2)cc1C,-14.5
10,C[C@@H](C(=O)Nc1ccccc1N1CCOCC1)N1C(=O)C2CC=CCC2C1=O (stereo partly shown),16.8
11,Cc1c(C(=O)Nc2cccc3cccnc23)oc2ccccc12,10.5
12,Cc1ccc(C(c2nnnn2C2CCCC2)N2CCN3CCCC3C2)cc1 (stereo not shown),-26
13,COc1ccc(/C=C/C(=O)OCC(=O)Nc2cccc(C(C)=O)c2)cc1,8.25
14,COc1ccc(CC(=O)NNC(=S)Nc2ccccc2)cc1Cl,8.44
15,CCOC(=O)CSc1nnc(Cn2nnc3ccccc32)n1-c1ccc(F)cc1,-5.72
16,Cc1ccc(CCN2CC(C(=O)NCCC(C)C)CC2=O)cc1 (stereo not shown),-5.98
17,O=C(O)c1sc2cc(Cl)ccc2c1Cl,7.92
18,COc1cc(/C=N/NC(=O)c2ccc3c(c2)OCCO3)c(Br)c(Br)c1O,10.8
19,Cc1ccccc1COc1ccc(/C=N/NC(=O)c2nnn(-c3nonc3N)c2CN2CCC(C)CC2)cc1,7.92
20,CCOc1ccc(N(CC)C(=O)COc2cc(=O)n(CC)c3ccccc23)cc1,-16.1
21,O=C(NCCCN1CCOCC1)c1ccc(Br)s1,-6.05
22,CC1CC(C)(C)OC(C[N+]2(C)CCCCC2)O1.[I-] (stereo not shown),23.7
23,O=c1c2ccccc2nc2n1C(CBr)CS2 (stereo not shown),15.6
24,O=C(Nn1c(O)c(C=C2N=c3ccccc3=N2)sc1=S)c1cccc(Cl)c1,3.39
25,CC(CCc1ccccc1)NC(=O)CSc1cccc[n+]1[O-] (stereo not shown),16.8
26,COC(=O)c1ccc(NC(=O)COc2ccc(N(C)S(=O)(=O)c3ccc(C)cc3)cc2)cc1,-11.1
27,CC/C(=C\C(=O)c1cccnc1)Nc1ccc(C)c(C)c1,-2.24
